# Data: the supplement of paper PMC3334620
# Whole data set: some 33,000 sequences, median “E-score (-0.5 to 0.5)” near -0.012, cut for the highest 2% near 0.27. The list shows a part of the results.
# Target: T1, Vhr1 (UniProt P40522)
# T1 sequence: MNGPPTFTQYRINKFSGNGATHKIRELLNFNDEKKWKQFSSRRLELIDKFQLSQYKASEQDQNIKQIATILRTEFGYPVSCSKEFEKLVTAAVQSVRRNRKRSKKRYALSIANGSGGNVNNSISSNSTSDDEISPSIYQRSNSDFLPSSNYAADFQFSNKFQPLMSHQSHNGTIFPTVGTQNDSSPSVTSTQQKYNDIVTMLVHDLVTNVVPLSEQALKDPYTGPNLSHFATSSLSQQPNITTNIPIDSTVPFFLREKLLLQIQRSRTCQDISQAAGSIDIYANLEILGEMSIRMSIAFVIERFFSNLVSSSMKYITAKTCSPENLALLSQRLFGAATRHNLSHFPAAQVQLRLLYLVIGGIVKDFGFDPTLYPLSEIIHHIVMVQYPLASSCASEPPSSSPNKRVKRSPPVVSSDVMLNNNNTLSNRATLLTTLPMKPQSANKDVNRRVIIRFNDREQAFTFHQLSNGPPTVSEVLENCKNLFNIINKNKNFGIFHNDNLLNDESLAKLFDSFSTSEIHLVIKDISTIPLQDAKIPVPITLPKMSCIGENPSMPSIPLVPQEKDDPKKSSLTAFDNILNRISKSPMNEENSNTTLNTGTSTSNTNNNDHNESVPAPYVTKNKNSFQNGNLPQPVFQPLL
# Test: PBM E-score (8-mer binding enrichment) (E-score (-0.5 to 0.5)); higher = stronger / more preferred TF binding; most listed sequences are background and not binding sites
# Details: protein concentration: 200 nM; construct: GST-full length
# How it was run: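 Masliner-normalised scans of fluorescent anti-GST signal were the basis for scoring. That signal came from GST-tagged yeast transcription factors applied at about 100-200 nM to double-stranded universal all-10-mer Agilent arrays on fresh or once-stripped slides. Each ungapped eight-base word, pooled with its reverse complement, received an E-score from the Universal PBM Analysis Suite.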
row,Sequence,PBM E-score
1,CCTCGGCG,0.283
2,AGGAGCCC,-0.162
3,AAGTCGAC,0.17
4,AAAACACA,0.0118
5,AAAAAAAG,-0.0686
6,ATTCCATA,0.107
7,AAACTCAG,-0.108
8,CGCCCGAA,-0.0969
9,CCACCATC,0.0312
10,CGACGGCC,-0.0896
11,ACGAGCCG,0.119
12,ACAAGCTA,-0.14
13,ACTAGGTC,0.223
14,GATCGCCC,0.085
15,CGATTTAC,-0.168
16,AATGTTTA,-0.0247
17,ATTACCCA,0.262
18,TCTTATCA,-0.113
19,ATGCAGCA,0.079
20,CAACGGTG,-0.0847
21,CACCGCGA,0.0982
22,ACGTCAAT,-0.0555
23,AAAATTTC,-0.378
24,ACGGGGTG,0.256
25,TGAATTAA,0.027

row,Sequence,PBM E-score
1,CCTTCACC,-0.144
2,AGATTGGG,0.0236
3,AAAACGCT,-0.366
4,AGGAATTC,-0.0252
5,CAACTATA,-0.115
6,ACCGTCCA,0.0545
7,CAAGAAAC,0.0519
8,ATGCGGGC,0.115
9,CGGTGTTA,0.147
10,ACATCAGT,0.219
11,GTCCTGCA,-0.247
12,ACATTTCG,-0.193
13,ATGGTCCG,0.175
14,CCCCCCGA,-0.252
15,CGTACAAC,0.11
16,ATGCACGC,-0.0239
17,ACCAGGCT,-0.00278
18,GGTTGGAA,-0.0726
19,TGCCCACA,-0.134
20,GCCCCGTA,-0.312
21,GGCCACTA,-0.00131
22,CAACCCAA,-0.131
23,TCCTACAA,0.107
24,AGTCGCAG,0.24
25,GAAAGTTA,-0.0482

row,Sequence,PBM E-score
1,CATGAGCG,0.0979
2,GCCCTAGA,-0.332
3,GACCTATC,0.0692
4,AATAAACT,0.0571
5,AAGCACGC,0.0803
6,ATGAGTAG,0.189
7,ACGTTGTC,-0.0959
8,CGAGACAG,0.235
9,TATAGCCA,0.119
10,CGGCGGCA,-0.0208
11,CGGCAGTC,0.185
12,CCAGTTCC,-0.0688
13,AAAGATCT,-0.249
14,TACTTATA,-0.0199
15,CATGTCGA,0.0467
16,TAATTTGA,-0.288
17,AAACCTTT,-0.27
18,ATACGTTG,0.0231
19,CGCATCAC,-0.0716
20,ATCTCGCC,0.0271
21,TCCGGCCA,-0.194
22,ATCAATAA,0.0138
23,CGCTGCGC,-0.0366
24,AAGTCGAA,-0.147
25,CGTCAAAC,-0.198

row,Sequence,PBM E-score
1,AACCGCTA,0.0759
2,AACCAATT,0.0547
3,AAGCTAGT,-0.0022
4,CTTTGAAA,-0.0938
5,TCAGTCCA,-0.18
6,GCTGTCCA,0.129
7,CGCAGGCG,-0.0219
8,ACGAGACC,0.00017
9,AGCGATAG,-0.06
10,CCATGTTA,0.0466
11,CCTCGTAA,0.0858
12,AACTTCTA,-0.275
13,TAATACCA,0.24
14,AGCGTCGG,-0.0578
15,ACAGAGAG,-0.134
16,CCAGTTTA,-0.0407
17,CAGGGCGG,0.0854
18,AACAACGA,0.106
19,GCGGTCAC,-0.00992
20,AGGTCACA,0.0779
21,AATGACAA,-0.0336
22,TAGGCGAA,-0.0941
23,AGGACCTA,-0.0256
24,AGTCTGTC,-0.22
25,ACTAGTGG,-0.0245

row,Sequence,PBM E-score
1,ATAGCAAC,0.0326
2,AAGAGGGA,-0.21
3,CGACGCAA,-0.00998
4,TCGCCGCA,-0.0173
5,AGAGACGG,0.0592
6,AGGTGTGA,0.18
7,ACTGAACT,0.00624
8,AGGCTGCA,-0.203
9,GACCTATA,0.186
10,CAGGTTGC,0.0612
11,CCGGCTAG,-0.272
12,GGCCACCC,0.0977
13,GGGAGAAA,-0.157
14,GTGTATTA,0.187
15,AGTGCACT,-0.0722
16,CACATTGG,-0.0497
17,ATCAATCA,0.248
18,CGGCTGAA,0.0611
19,ATCTGGAG,-0.171
20,TAGGTTGA,0.0773
21,CCGTGTGC,0.127
22,GCAAGACC,-0.236
23,CCTTCGGC,-0.0703
24,CGCAGCCC,-0.0482
25,GGACAGCC,0.119

row,Sequence,PBM E-score
1,GGCCGACA,-0.138
2,AGCGGCCG,-0.07
3,CGGCTTCC,0.1
4,AACCCTCA,-0.156
5,GCGCTAGC,-0.157
6,TGCTGAAA,-0.167
7,AGCGCATC,-0.208
8,CATCGCGG,0.00396
9,ATGCCATG,0.024
10,CTGTCTCC,0.0737
11,ACGCTCCT,-0.065
12,TACAGGTA,0.0714
13,AAATCACT,0.149
14,AAACCGGC,0.081
15,CCTATCAC,-0.024
16,GCTTGCAC,-0.0624
17,CGAGACGA,-0.023
18,GGCGCCCC,-0.0447
19,ATTAGGCA,-0.0874
20,AGGAATAT,0.0348
21,GTGCTAGA,-0.075
22,GGAAAAAC,-0.0244
23,GGCATTCA,-0.14
24,GCAGTGAC,0.222
25,CACGCGTA,-0.0315

row,Sequence,PBM E-score
1,CTGTACCA,0.0202
2,AATGCTGC,-0.0845
3,ATGACGTG,-0.0163
4,ACGAAGCC,-0.0181
5,GACCACGA,0.0877
6,TCTATGCA,0.00098
7,ACACTAAG,-0.0412
8,GAACATCC,0.0511
9,CCCATACC,0.119
10,AACTAGAT,-0.0779
11,GACGGCGC,-0.058
12,AGCGCAAA,-0.0778
13,ATAGTAAT,0.265
14,AGACCAGG,-0.174
15,AGTTACAA,0.127
16,CGTCCTAC,-0.0682
17,TCCTTACA,-0.136
18,GCCACGCA,0.0308
19,AAGTGTGA,0.0182
20,ATCTGGAA,0.0976
21,CCGTACAC,0.16
22,CAAGGGGG,-0.0997
23,CTCGTTAA,0.067
24,AATTCGGA,0.0232
25,CAACGTTG,0.0963

row,Sequence,PBM E-score
1,GGCGTCCA,-0.172
2,ATCTTTGC,0.00796
3,ACGTTTAA,-0.126
4,AGTCAAAC,0.0301
5,GCAAACAA,0.0795
6,ACGGGTAT,0.173
7,CAACATCG,0.0602
8,GGCAACTA,0.0177
9,ACATAGGG,0.0435
10,GCTTTACA,-0.215
11,CGGATCAG,0.181
12,GATAAACA,0.082
13,AGAATACT,0.0167
14,AACTAGTA,0.0154
15,AAGTGTCC,-0.305
16,CAACCAGA,0.142
17,AGCCTTGG,-0.149
18,CCCAGAAG,0.0196
19,CGAGGCTA,-0.0547
20,CAAGTAAC,0.0536
21,CAACTAAA,-0.00523
22,AACGAGTT,-0.117
23,CCCATTGA,-0.115
24,GCCATCAC,-0.0422
25,ATGTATGA,0.25

row,Sequence,PBM E-score
1,GCACTCTA,-0.101
2,AAACTTTG,-0.161
3,AACGAAAC,0.0391
4,GGCGTCAC,-0.149
5,GGGCCCTA,-0.175
6,ACGATCAG,0.161
7,CTGAGCCA,0.247
8,TGAAAGCA,-0.129
9,AACATCTC,-0.155
10,GCTCCAAC,0.0292
11,GTAACCTA,-0.0297
12,CTTGATAC,-0.0827
13,GAGCACTC,-0.0397
14,GGACACCA,0.147
15,CAGGCGCC,0.0921
16,GCCATAAC,-0.062
17,AAGCGCAC,-0.0714
18,AGGATTAC,-0.0618
19,ATCGCCAC,0.0747
